# Experimental data: the supplement of paper PMC8728848
# This is one part of the list.
# What was measured:
# Test in all cases: glycan array binding signal (z-score within array); higher = stronger binding
# Conditions in all cases: glycan notation: IUPAC condensed, linker removed
# [1] = target: Gal(b1-4)GlcNAc(b1-6)GalNAc
# Method in brief: (§1)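 The Consortium for Functional Glycomics database supplied 3228 glycan arrays, of which those lacking an available protein sequence were dropped. The binding signal, a within-array Z-score, was averaged across arrays of the same protein sequence and across linkers. Negative scores can be read as non-binding.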
# [2] = target: Gal(b1-4)GlcNAc(b1-6)[Gal(b1-3)]GalNAc
# Method in brief: as §1
# [3] = target: Gal(b1-4)GlcNAc(b1-6)[Gal(b1-4)GlcNAc(b1-3)]GalNAc
# Method in brief: as §1
# Gal(b1-4)GlcNAc6P = target: Gal(b1-4)GlcNAc6P
# Method in brief: as §1
# Gal(b1-6)Gal = target: Gal(b1-6)Gal
# Method in brief: as §1
# Gal3S(b1-3)GalNAc = target: Gal3S(b1-3)GalNAc
# Method in brief: as §1
# Gal3S(b1-3)GlcNAc = target: Gal3S(b1-3)GlcNAc
# Method in brief: as §1
# [4] = target: Gal3S(b1-3)[Fuc(a1-4)]GlcNAc
# Method in brief: as §1
# Gal3S(b1-4)Glc = target: Gal3S(b1-4)Glc
# Method in brief: as §1
# Gal3S(b1-4)Glc6S = target: Gal3S(b1-4)Glc6S
# Method in brief: as §1
# Gal3S(b1-4)GlcNAc = target: Gal3S(b1-4)GlcNAc
# Method in brief: as §1
# [5] = target: Gal3S(b1-4)[Fuc(a1-3)]Glc6S
# Method in brief: as §1
# [6] = target: Gal3S(b1-4)[Fuc(a1-3)]GlcNAc
# Method in brief: as §1
# [7] = target: Gal3S(b1-4)[Fuc(a1-3)]GlcNAc6S
# Method in brief: as §1
# Gal3S4S(b1-4)GlcNAc = target: Gal3S4S(b1-4)GlcNAc
# Method in brief: as §1
# Gal3S6S(b1-4)GlcNAc = target: Gal3S6S(b1-4)GlcNAc
# Method in brief: as §1
# Gal3S6S(b1-4)GlcNAc6S = target: Gal3S6S(b1-4)GlcNAc6S
# Method in brief: as §1
# Gal4S(b1-4)GlcNAc = target: Gal4S(b1-4)GlcNAc
# Method in brief: as §1
# Gal4S6S(b1-4)GlcNAc = target: Gal4S6S(b1-4)GlcNAc
# Method in brief: as §1
# Gal6P(b1-4)GlcNAc = target: Gal6P(b1-4)GlcNAc
# Method in brief: as §1
# Gal6S(b1-3)GlcNAc = target: Gal6S(b1-3)GlcNAc
# Method in brief: as §1
# Gal6S(b1-3)GlcNAc6S = target: Gal6S(b1-3)GlcNAc6S
# Method in brief: as §1
# Gal6S(b1-4)Glc = target: Gal6S(b1-4)Glc
# Method in brief: as §1
# Gal6S(b1-4)Glc6S = target: Gal6S(b1-4)Glc6S
# Method in brief: as §1
# Gal6S(b1-4)GlcNAc = target: Gal6S(b1-4)GlcNAc
# Method in brief: as §1
# Gal6S(b1-4)GlcNAc6S = target: Gal6S(b1-4)GlcNAc6S
# Method in brief: as §1
# GalNAc(a1-3)Gal = target: GalNAc(a1-3)Gal
# Method in brief: as §1
# GalNAc(a1-3)GalNAc = target: GalNAc(a1-3)GalNAc
# Method in brief: as §1
# [8] = target: GalNAc(a1-3)GalNAc(b1-3)Gal(a1-4)Gal(b1-4)Glc
# Method in brief: as §1
# [9] = target: GalNAc(a1-3)GalNAc(b1-3)Gal(a1-4)Gal(b1-4)GlcNAc
# Method in brief: as §1
# GalNAc(b1-3)Gal = target: GalNAc(b1-3)Gal
# Method in brief: as §1
# [10] = target: GalNAc(b1-3)Gal(a1-4)Gal(b1-4)GlcNAc
# Method in brief: as §1
# [11] = target: GalNAc(b1-3)Gal(a1-4)Gal(b1-4)GlcNAc(b1-3)Gal(b1-4)Glc
# Method in brief: as §1
# [12] = target: GalNAc(b1-3)Gal(a1-6)Gal(b1-4)Glc
# Method in brief: as §1
# GalNAc(b1-3)GalNAc = target: GalNAc(b1-3)GalNAc
# Method in brief: as §1
# GalNAc(b1-3)GlcNAc = target: GalNAc(b1-3)GlcNAc
# Method in brief: as §1
# GalNAc(b1-4)Gal(b1-4)Glc = target: GalNAc(b1-4)Gal(b1-4)Glc
# Method in brief: as §1
# GalNAc(b1-4)GlcNAc = target: GalNAc(b1-4)GlcNAc
# Method in brief: as §1
binder,measurement,setting,value
Clec49 (Caenorhabditis elegans) (protein) MTRLTLLLFGLLGAATAQTCNTGGIYNEQFNRCYQYFTAPAQFSFAEQQCNLLGGHLASVQNGQENALLQSNAANSFKRSNYSDYWIGATDLETSGTWKWTDPSVTFDYSNWQLGEPQSGSDCAIQDKGDGTWSAIGCTSYRPYVCVTPVIMTATCPPITTPIPTTCPTPAPCPIKQCVPSCDQGWTYFSPTDFCYRVYHGEKFNDAEASCVLLGGHLASIHSLTENTFVNNIASCGIKEGKYEHLAWIGMRKVGQDWVWTDGTPSDYFNWAPKQPDNPKKELCVQTAPDLSHDKWYENWNNLECNEVMRAYICKKASIHN,glycan array binding signal (z-score),[1],-0.076
same,glycan array binding signal (z-score),[2],0.61
same,glycan array binding signal (z-score),[3],-0.553
same,glycan array binding signal (z-score),Gal(b1-4)GlcNAc6P,-0.471
same,glycan array binding signal (z-score),Gal(b1-6)Gal,-0.558
same,glycan array binding signal (z-score),Gal3S(b1-3)GalNAc,-0.362
same,glycan array binding signal (z-score),Gal3S(b1-3)GlcNAc,-0.889
same,glycan array binding signal (z-score),[4],-0.107
same,glycan array binding signal (z-score),Gal3S(b1-4)Glc,0.865
same,glycan array binding signal (z-score),Gal3S(b1-4)Glc6S,-0.313
same,glycan array binding signal (z-score),Gal3S(b1-4)GlcNAc,-0.603
same,glycan array binding signal (z-score),[5],-0.488
same,glycan array binding signal (z-score),[6],-0.647
same,glycan array binding signal (z-score),[7],-0.271
same,glycan array binding signal (z-score),Gal3S4S(b1-4)GlcNAc,-0.596
same,glycan array binding signal (z-score),Gal3S6S(b1-4)GlcNAc,-0.612
same,glycan array binding signal (z-score),Gal3S6S(b1-4)GlcNAc6S,0.736
same,glycan array binding signal (z-score),Gal4S(b1-4)GlcNAc,-0.522
same,glycan array binding signal (z-score),Gal4S6S(b1-4)GlcNAc,-0.639
same,glycan array binding signal (z-score),Gal6P(b1-4)GlcNAc,0.217
same,glycan array binding signal (z-score),Gal6S(b1-3)GlcNAc,-0.081
same,glycan array binding signal (z-score),Gal6S(b1-3)GlcNAc6S,0.716
same,glycan array binding signal (z-score),Gal6S(b1-4)Glc,0.093
same,glycan array binding signal (z-score),Gal6S(b1-4)Glc6S,-0.366
same,glycan array binding signal (z-score),Gal6S(b1-4)GlcNAc,-0.068
same,glycan array binding signal (z-score),Gal6S(b1-4)GlcNAc6S,0.322
same,glycan array binding signal (z-score),GalNAc(a1-3)Gal,-0.207
same,glycan array binding signal (z-score),GalNAc(a1-3)GalNAc,-0.595
same,glycan array binding signal (z-score),[8],0.137
same,glycan array binding signal (z-score),[9],0.019
same,glycan array binding signal (z-score),GalNAc(b1-3)Gal,-0.427
same,glycan array binding signal (z-score),[10],0.122
same,glycan array binding signal (z-score),[11],-0.551
same,glycan array binding signal (z-score),[12],-0.871
same,glycan array binding signal (z-score),GalNAc(b1-3)GalNAc,0.425
same,glycan array binding signal (z-score),GalNAc(b1-3)GlcNAc,-0.016
same,glycan array binding signal (z-score),GalNAc(b1-4)Gal(b1-4)Glc,-0.239
same,glycan array binding signal (z-score),GalNAc(b1-4)GlcNAc,-0.349
